Out of some 150,000 compounds screened, about 540 (0.36%) showed an effect of 50% or more. The list shows a part of the results.
tested on: Plasmodium falciparum; test: Primary screen in NF54 nanoGlo assay, in single point, at 2uM, 72h; a lower Z score goes with more inhibition; assay type: functional, Erythrocyte; conditions: timepoint 72 hour

| Structure (SMILES) | % Inhibition | Z score |
| --- | --- | --- |
| Cc1cccnc1CN(C(=O)Nc1cncc(F)c1)C(C)C | -2% | 0.32 |
| O=C1N[C@H](c2cccc(O)c2)C(=O)N1c1ccccc1OC(F)(F)F | -11% | 1.54 |
| CCOC(=O)c1c(-c2ccccc2)n(S(C)(=O)=O)c2ccc(NS(C)(=O)=O)cc12 | -12% | 1.37 |
| O=C(C1CCC1)N(Cc1ccc(F)cc1)C[C@H]1CC(c2ccc(Cl)cc2)=NO1 | -7% | 1.11 |
| Cc1cccc(N2C(=O)C3C4C=CC(C4=C4CCCCC4)C3C2=O)c1 (stereo unspecified) | 0% | 0.03 |
| CC(=O)Nc1nc(C(=O)Nc2ccccc2-c2ccccc2)cs1 | -4% | 0.78 |
| COc1ccc(CNC(=O)CC2CCN(C(=O)c3[nH]c(C)cc3C)CC2)cc1 | 2% | -0.26 |
| CC(=O)Nc1ccc(OCC(=O)N2CCCCCC2)nc1 | -7% | 1.19 |
| COc1ccc(-n2nnnc2C2(NCc3ccccc3)CCCC2)cc1OC | -11% | 1.53 |
| COc1ccc(Cl)cc1C(=O)N[C@H]1CCc2n[nH]c(=O)n2CC1 | -11% | 1.67 |
| CC#CC(=O)NC[C@@](C)(C(=O)OC)c1ccccc1F | -12% | 1.37 |
| Cc1nc2c(c(NC(=O)Cc3ccccc3)nn2C)c(C)c1Cl | -8% | 0.76 |
| CCN1C(=O)COc2ccc(NC(=O)N[C@@H]3CCc4ccccc43)cc21 | 0% | -0.04 |
| O=C(c1cnc2nccn2c1)N1CC[C@@H]2CCC[C@@H]21 | 5% | -0.55 |
| O=C(Nc1ccccc1O)c1cc(S(=O)(=O)N2CCCCC2)cs1 | -35% | 3.19 |
| Cc1cc(OCCCS(=O)(=O)C(C)C)nn1C | -5% | 0.56 |
| CCC1CN(Cc2cnoc2C)C(CC)CN1Cc1cnoc1C (stereo unspecified) | 5% | -0.58 |
| COCCn1c(CCCC(=O)Nc2ccc(NC(C)=O)cc2)nc2cccnc21 | -14% | 1.78 |
| C[C@H](NCc1ccc(S(C)(=O)=O)s1)C(C)(C)C(F)F | -24% | 4.85 |
| CC(C)n1cnnc1CCNC(=O)N1CCCC[C@H]1c1ccc(F)cc1 | -9% | 1.52 |
| Cc1ccc(Oc2nc(N3CCC(C)CC3)nc3c2CN(Cc2cccc(C(F)(F)F)c2)CC3)cc1 | -11% | 1.46 |
| O=C1CCCC[C@@H](C(=O)NCc2ccco2)N1 | -1% | 0.16 |
| CC(C)(C)[C@@H]1CCCN1C(=O)c1cc(=O)[nH]c(C2CC2)n1 | 27% | -3.09 |
| O=C(NC1CCCCC1)N(CCN1CCCCC1)C1CCOCC1 | -5% | 0.81 |
| O=C(Nc1cccc(CNC(=O)C2(c3ccc(Br)cc3)CCCC2)c1)N1CCCC1 | -3% | 0.41 |
| O=C(Cn1nc2ccc(C(=O)NCc3ccccc3)cn2c1=O)NCc1ccc(Cl)cc1 | -9% | 0.77 |
| O=C(c1ccoc1C1CC1)N1C[C@@H](CO)Cc2cccc(F)c21 | -8% | 1.01 |

| Structure (SMILES) | % Inhibition | Z score |
| --- | --- | --- |
| CN1C(=O)[C@@]2(c3ccccc31)N(c1cccc(Cl)c1)C(=O)CS2(=O)=O | -19% | 1.87 |
| COc1c(F)cc(S(=O)(=O)N2CCn3nccc32)cc1F | 8% | -1.24 |
| Cn1c(-c2ccncc2)nc2cc(C(=O)O)cc(NC(=O)C3CCC3)c21 | -12% | 1.68 |
| CC[C@H](C)OCC(=O)N1CCC(O)(COC)CC1 | -3% | 0.37 |
| COc1ccc2c(c1)CC[C@H](NCc1ccc(N3CCCC3=O)cc1)C2 | -13% | 2.21 |
| COCCN(Cc1ccc(OC)c(OS(=O)(=O)c2ccc(F)cc2)c1)C(=O)Nc1ccc(C)cc1 | -14% | 2.46 |
| O=C(N[C@H]1CCN(c2nnc(C3CCC3)o2)C1)OCc1ccccc1 | 2% | -0.17 |
| CCS(=O)(=O)Oc1cccc(CN(CC2CC2)C(C)=O)c1 | 0% | -0.03 |
| OCC1CCCCC1NCc1nc(C2CCCC2)no1 (stereo unspecified) | 1% | -0.14 |
| NC1=NC2(CCCCC2)N(c2ccccc2)C(N)=N1 | 11% | -1.59 |
| Cn1c(CN2CCCC2)nnc1[C@H]1CCCN(c2ncccc2Cl)C1 | -13% | 1.7 |
| CCc1oc(C(=O)Nc2ncccc2OCc2cccnc2)cc1C | -3% | 0.31 |
| CCn1cc(CNC(=O)c2ccc3nc(-c4cccc(OC)c4)oc3c2)cn1 | -23% | 1.99 |
| Cc1ncoc1C(=O)N[C@H]1CC(=O)N(Cc2cccc3ccccc23)C1 | -8% | 1.37 |
| Cn1nncc1S(=O)(=O)NC1(Cc2cccc(F)c2)CCC1 | -10% | 1.63 |
| O=C(OC[C@H]1CCN(c2ccccc2)C1)c1ccc2n[nH]c(=O)n2c1 | -9% | 1.44 |
| N#CCC[C@H](NCC(F)(F)F)c1ccccc1 | -8% | 0.7 |
| Cc1ccc2oc(N(C)Cc3noc(C)n3)nc2c1 | 1% | -0.11 |
| COc1cc(=O)n(C)cc1C(=O)N1CCC(Oc2cccc3cccnc23)CC1 | -9% | 1.72 |
| Nc1cccc(-c2nnc3n2CCC3)c1 | -15% | 2.12 |
| Cc1ccc(-n2nc(C(=O)Nc3ccc(F)cc3)c(=O)n(Cc3ccc(C(F)(F)F)cc3)c2=O)cc1 | -5% | 0.7 |
| COc1cccc(C(=O)N(C)CCc2noc(-c3ccc(C(=O)N4CCCCC4)cc3)n2)c1 | -14% | 1.29 |
| CC1CN(C(=O)c2nc3cccnc3s2)CC(c2ccsc2)O1 (stereo unspecified) | -14% | 1.4 |
| Cc1ccoc1C(=O)N(CC1CCN(C2Cc3ccccc3C2)CC1)C[C@H]1CCCO1 | 2% | -0.44 |
| COc1ccc(OC)c(-c2cc(C(=O)NCc3cc(-c4cnccn4)nn3C)n(C)n2)c1 | 17% | -2.17 |
| O=C(O)[C@H]1CN(Cc2cccc3ncccc23)C[C@@H]1c1cccnc1 | -11% | 2.2 |

— ChEMBL document CHEMBL4888484, “Replenishing the malaria drug discovery pipeline: Screening and hit evaluation of the MMV Hit Generation Library 1 (HGL1) against asexual blood stage Plasmodium falciparum ,using a nano luciferase reporter read-out” (2022)
